Data: PubChem BioAssay AID743279 (National Center for Advancing Translational Sciences (NCATS), 2014)
Screen size: about 360,000 compounds; about 17,000 (4.7%) were called active. The inconclusive results got no clear call from the source; some entries with a clear call stand among them for comparison. No stated cut-off is given here; in the data, active means activity change below about -50%; inconclusive means mostly about -30% to -49%; inactive means weaker than that.

assay: qHTS for Inhibitors of Inflammasome Signaling: IL-1-beta AlphaLISA Primary Screen; settings: THP-1 LPS/ATP IL-1B secretion, 16 h; at 57.5 µM, stronger effect = lower value
How it was run: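 THP-1 cells pretreated 1 hr with compounds (up to 57.5 uM final), then stimulated with LPS (250 ng/mL final) plus ATP (1.25 mM final); secreted IL-1B measured by AlphaLISA after 16 hr, decreased signal indicating inhibition.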
On the % scale 0 is the no-effect control and ±100 the full control effect.

Compound | activity change
Cc1ccc(S(=O)(=O)N2C[C@@H](C)[C@]3(C2)[C@H](O)[C@H](OC(=O)NC2CC2)C[C@H]2C(=O)N(c4ccccc4)C(=O)[C@H]23)cc1 | inconclusive: -45.6%
Cc1nc(C)c(-c2ccc(SCC(=O)Nc3ccccc3)nn2)s1 | inactive
CN(CC(=O)N1CCN(c2cccc(Cl)c2)CC1)S(=O)(=O)c1cccs1 | inconclusive: -48%
CN1C(=O)[C@H]2[C@@H](/C=C/c3ccccc3)N3C(=O)CN(Cc4ccc(-c5ccccc5)cc4)C(=O)[C@@]3(Cc3ccccc3)[C@H]2C1=O | inconclusive: -32.4%
CC1(C)CC(=O)C=C(C#CC2(O)CCCCC2)C1 | active: -108%
COc1ccc(CN(C(=O)CN2C(=O)NC3(CCC(C)CC3)C2=O)C(C)Cc2cccs2)cc1 (centres undefined) | inconclusive: -42.8%
Cc1ccc(S(=O)(=O)N2CCN(Cc3cc(C(C)C)ccc3O)CC2)cc1 | inconclusive: -43.8%
CCOc1ccc(Cl)cc1S(=O)(=O)N1CCC(C(=O)NC2CC2)CC1 | inactive: -14%
C(=N\Nc1nc(-c2ccccc2)cs1)/c1ccncc1 | inconclusive: -32.2%
C[C@@H]1Cn2cnc(C(=O)Nc3ccccc3)c2C(=O)N1 | inconclusive: -38.1%
Cc1ccc(NC(=S)NCC2CCN(C(C)c3ccccc3)C2)cc1 (centres undefined) | inconclusive: -44.7%
Nn1c(SCC(=O)Nc2cc(C(F)(F)F)ccc2Cl)nncc1=O | inconclusive: -35.7%
Cc1ccccc1-c1nnc(SCC(=O)Nc2cccc(C)c2C)o1 | inconclusive: -32.6%
CS(=O)(=O)N1CCN(c2nc(-c3ccccc3)cs2)CC1 | inconclusive: -31.9%
Cc1ccc(C(=O)/C=C/c2ccccc2)o1 | inconclusive: -39.7%
Cc1[nH]nc2c1C(c1ccc3c(c1)OCO3)C(C#N)=C(N)O2 (centres undefined) | inconclusive: -45%
CCOC(=O)c1c(NC(=O)CC2SC(N)=NC2=O)sc2c1CCCC2 (centres undefined) | inconclusive: -42.8%
COc1ccc(Cn2c(=O)[nH]c3cc(C(=O)NCCCOC(C)C)ccc3c2=O)cc1 | inactive: 16.5%
O=C1CC(=O)CC(c2ccccc2Cl)C1 | inactive: 21.9%
O=C(Nc1ccncc1)Nc1ccc(Br)cc1Cl | active: -93.9%
CCN(C(=O)c1cnc(NC(C)C)cc1C(F)(F)F)c1ccc(Cl)cc1 | inconclusive: -37.6%
O=C(O)Cc1sc(Nc2ccccc2)nc1-c1ccc(Cl)cc1 | inactive: -0.449%
CCOc1ccc(S(=O)(=O)N(CC(=O)NCC2CCCO2)c2ccc(F)cc2)cc1 (centres undefined) | inactive: -0.211%
CCOC(=O)c1ccc(NC(=O)Nc2ccn(C)n2)cc1 | inactive: -9.69%
Cc1cc(C(=O)N2CCN(c3ccccc3Cl)CC2)c(C)o1 | inconclusive: -39.9%
CCCCOc1c(C(=O)Nc2ccccc2)nnn1-c1ccccc1 | inconclusive: -43.1%
O=C(Nc1ccc(Cl)c(Cl)c1)N(Cc1cccnc1)Cc1ccco1 | inconclusive: -47.7%

Compound | activity change
CCCC(=O)NC1=C(Cl)C(=O)c2ccccc2C1=O | active: -101%
Cc1ccc(C(=O)/C=C/c2ccc(F)cc2)o1 | active: -103%
Cc1ccc(C(=O)Nc2ccc(N3CCN(C(=O)c4ccco4)CC3)cc2)cc1 | inactive: -18.2%
COc1ccc(C(=O)Nc2ccc(S(=O)(=O)NC(C)=O)cc2)cc1[N+](=O)[O-] | inactive: -13.1%
CCN(CC)S(=O)(=O)c1ccc(C)c(NC(=O)COC(=O)CNC(=O)c2ccc(C(C)(C)C)cc2)c1 | inactive: 13%
Cc1cc(C)n(-c2ccc(NC(=O)C3CCCCN3C(=O)c3ccc(C)s3)cc2)n1 (centres undefined) | inconclusive: -30.6%
CN(Cc1ccccc1)C(=O)COc1cc(Cl)ccc1Cl | inconclusive: -46.3%
COc1ccc(Nc2nc(-c3cccnc3)cs2)c(OC)c1 | inconclusive: -49.4%
O=C(O)C(c1ccccc1)N1C(=O)/C(=C\c2ccc(-c3ccccc3Cl)o2)SC1=S (centres undefined) | inactive: -8.77%
Cc1ccccc1CNC(=O)CCc1ccccc1 | inconclusive: -47.3%
COc1ccc(/C=C2\SC(=O)N(CC(=O)Nc3cccc(C)c3)C2=O)cc1O | inconclusive: -46.8%
O=S(=O)(c1ccc(N2CC=C(c3ccccc3)CC2)nc1)N1CCCC1 | active: -92.6%
O=C(Nc1cccc(S(=O)(=O)N2CCCCC2)c1)c1cc(=O)[nH]c2ccccc12 | inconclusive: -32.8%
CCN(CC)CCN(Cc1cc2cc3c(cc2[nH]c1=O)OCO3)C(=S)NCCOC | inactive: -27.6%
CC(C)(C)S(=O)N1Cc2cc(C(=O)Nc3ccc(-c4ccccc4)cc3)nc(-c3cccc(-c4cc5ccccc5o4)c3)c2[C@@H]1CCO (some centres undefined) | inconclusive: -48.4%
CCCN1CC(=O)N2C(c3ccccc3)c3[nH]c4ccccc4c3C[C@H]2C1=O (some centres undefined) | inconclusive: -46%
CC[C@@H]1CCCCc2ccccc2[C@@H](C(=O)C[C@@H](O)CC(C)=O)OC1=O | inactive: -7.65%
CCn1c2ccccc2c2cc(NC(=O)CNC)ccc21 | active: -85.6%
CC(C)c1cccc(-c2ccc3c(c2)S(=O)(=O)c2cccc(C(=O)NCc4ccccc4)c2C3=O)c1 | inactive: 17.6%
COc1ccc(Cl)cc1NC(=O)COC(=O)C1COc2ccccc2O1 (centres undefined) | inactive: 25.7%
COc1ccccc1CNC(=O)c1ccccc1NC(=O)C1=C(C)OCCS1 | inconclusive: -44.1%
COC(=O)CSC1=C(C#N)C(c2ccsc2)CC(=O)N1 (centres undefined) | inconclusive: -44.2%
CCOc1ccc(-n2c(N)c(C(=O)NCc3ccco3)c3nc4ccccc4nc32)cc1 | active: -95.7%
O=S(N1CCc2ccccc21)C12CC3CC(CC(C3)C1)C2 (centres undefined) | inconclusive: -33.1%
CCOC(=O)CN1C(=O)C(Sc2n[nH]c(-c3ccccc3)n2)CCc2ccccc21 (centres undefined) | inconclusive: -46.2%
COc1cc(CN2CCC(C(=O)NC(C)(C)C)CC2)ccc1OCc1ccccc1 | inconclusive: -30.6%
COC(=O)c1ccc(C(=O)OC)c(NC(=S)N2CCN(C(=O)C3CCCO3)CC2)c1 (centres undefined) | inactive: -13.3%
